The record followed here is article PMC12136788.

The chains are these.
T1: UNK ZnF1-3 (human, UniProt Q9C0B0 31-174)
T1 sequence: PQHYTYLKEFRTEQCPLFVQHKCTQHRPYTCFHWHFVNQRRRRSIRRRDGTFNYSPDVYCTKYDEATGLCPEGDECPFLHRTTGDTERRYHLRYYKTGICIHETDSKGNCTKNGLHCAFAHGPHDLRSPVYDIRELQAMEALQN

B1: chr2:47387610:47387611:-_ENSG00000143933_ENST00000272298|hu_hu|FALSE|FALSE (ssRNA)
RNA: GGGAGUUCUACAGUCCGACGAUCACGCAGAGUUACAACUCCACACUUCAACAACAACAUGCUGACAGUUCCUAAAGAAAACUACUUUAAAAAAGGCAUAACCCAGAUGUUCCCUCAUUUGACCAACUCCAUCUAAGUUUAGAUCAACAGAGGAUUGAGCAUCA
B2: chr2:48026839:48026840:+_ENSG00000116062_ENST00000540021|hu_hu|hu_hu_hu_mus_False|28_38 (ssRNA)
RNA: GGGAGUUCUACAGUCCGACGAUCAUAGUGAGCCACUAGCGUCCUAAAUCUGGAACAGUGGCGGUCAUCCGAAAACUGGCCGAUGAAAAACUUGCCCAGUGAAGUAUCAACAAAGCAAACACCAUACACACGAGUGUGACCAGACAACAGAGGAUUGAGCAUCA
B3: chr18:9993692:9993693:+_ENSMUSG00000024287_ENSMUST00000025137|mus_mus|FALSE|FALSE (ssRNA)
RNA: GGGAGUUCUACAGUCCGACGAUCGGAGCACCAGCCAACUGUACAAUAGCUGUUAUAAAAGUGUUUAUUGUUUACCAAAACCAGUGAACCUUUUAUCAAAUGCUGCUUGGUAACAAAAUCUUAUCACUGUUUAAUAAAAAAGAACAACAGAGGAUUGAGCAUCA
B4: chr4:12084866:12084867:-_ENSMUSG00000028218_ENSMUST00000108285|mus_hu|FALSE|FALSE (ssRNA)
RNA: GGGAGUUCUACAGUCCGACGAUCUAAAUCUUCAUCUUCAUCAAUGUUUUGUAUAUUCUGGUAGGCAGCAGUGUAGACCUCUAAAGCUUUGCCGUGAAAUAACAUUUCGAUUGUGAUAAAUUCAGAAAAUAUAGUCUUUAUAUCCAACAGAGGAUUGAGCAUCA
B5: chr5:80946147:80946148:-_ENSG00000145687_ENST00000505980|hu_mus|FALSE|FALSE (ssRNA)
RNA: GGGAGUUCUACAGUCCGACGAUCUGUCUGAGCCGAUUUCUGAGCUCCUACAUGGAGCAGAUAUUCAUACACGUAGAGUGCUAACUUCUCCCGGGCCUGGCUGUCGGACGGGACGGCGCUGCUGUUACUCUUGCCUUUGCCGUACAACAGAGGAUUGAGCAUCA
B6: chr9:135554620:135554621:+_ENSG00000125484_ENST00000372146|hu_hu|FALSE|FALSE (ssRNA)
RNA: GGGAGUUCUACAGUCCGACGAUCUUCUUGUAAAAAUUGAGGGAUAUGUUUAUCUUUUAAAAUCUUCCAGCGUACUAGGUCUAUUAAAUCUACCUGCUUAAAAAGGUUUUGAACUGAAGAUUCCAGGAGCUGAGCAGCUGCCUCCAACAGAGGAUUGAGCAUCA
B7: chr2:198351390:198351391:-_ENSG00000144381_ENST00000345042|hu_hu|FALSE|FALSE (ssRNA)
RNA: GGGAGUUCUACAGUCCGACGAUCUUAUUCUCACUCUCCACAGAAAGGCUGCUUAACUUCUCAUCUGGUGGUGGCAAGCACUAAAAUCCUGAUUUUAACAGAAUAGUAGUAAAAAUGCCUCAGUGAUUUAAGUUGAAAGCAGUACAACAGAGGAUUGAGCAUCA
B8: chr3:9412954:9412955:+_ENSG00000134077_ENST00000452837|hu_mus|hu_hu_hu_mus_False|18_78 (ssRNA)
RNA: GGGAGUUCUACAGUCCGACGAUCGGUUGAUAUCUCUUCUUUGAUGGCUGGAUUUUCAUAAUAAUCUAAGAUAUGUGAAUCUGAAGUGCUGCUGGCAUGCUUUUUCUUACCAUCUUUCUGAUCGAUUUUGUCUCCUUGUCCACACAACAGAGGAUUGAGCAUCA
B9: 97314039_97317724_766_3pUTR_ENSMUSG00000039361_ENSMUST00000049537|mouse|control|control (ssRNA)
RNA: GGGAGUUCUACAGUCCGACGAUCUCUGUGUUCAUUGUUCUCAUAACUCCAUCAGCUCCUCUCUUCACUUUUGUGAAAUCGAAUGCAACUUGUCUGUAUGAAACUGCUUUUUCAUUUAAGUAUCUACUAUACCGUCUAAUAAAUCAACAGAGGAUUGAGCAUCA
B10: chr12:7078717:7078718:-_ENSG00000215021_ENST00000535923|hu_hu|FALSE|FALSE (ssRNA)
RNA: GGGAGUUCUACAGUCCGACGAUCUUUGGAGCCUGUAGGGGAGGAGAUUUUUCGAGGUCUGGCCCGAAUGUCAUAGAUAAUGGGGUACUGGAACCAAGGGAUCCUGAAGUGAAGGCCCUCGGCCAGGAUAGUGUCCUGCUGCACCAACAGAGGAUUGAGCAUCA
B11: chr1:184392483:184392484:+_ENSMUSG00000026510_ENSMUST00000117245|mus_mus|motif|central (ssRNA)
RNA: GGGAGUUCUACAGUCCGACGAUCCAUUUUUAAAACCAGCUAUGAUCUUGACAAAUACAGGUAAAUCUAUAACAAAUCUCGGAUUUCCAAGAUACAAAAAGACAAUAAAUAUAGAUUCAAAUUCAAUCUAAAAACAAGAUUCUACAACAGAGGAUUGAGCAUCA
B12: chr3:10015032:10015033:+_ENSMUSG00000027533_ENSMUST00000029046|mus_mus|mus_mus_mus_hu_True|8_48 (ssRNA)
RNA: GGGAGUUCUACAGUCCGACGAUCGUUUUUACCAUCACAAGUGAUGAUACAAUCUGGCUUGGCCAUUGCGCCCAUUUUUCGCAAAGCCAGUCCUACUCCUAGCUCCUUCAUGUAUUCAUCAAAGCCUUGGCUUUCCACCAGGCGCAACAGAGGAUUGAGCAUCA
B13: chr4:95202638:95202639:+_ENSG00000163104_ENST00000354268|hu_mus|motif|central (ssRNA)
RNA: GGGAGUUCUACAGUCCGACGAUCUAAGAGAACCUCUAGUAUAUCCAGCAUCAUGGUAAACUGGCUGAAUAAUACAACUCGGUCACCCUUCUGUUUCAACUCAGACAAGAUGCAUCCUAAGGCUCGGAAUUUCCCAGAAUCUAACAACAGAGGAUUGAGCAUCA
B14: chr7:99968543:99968544:+_ENSMUSG00000030643_ENSMUST00000032879|mus_mus|FALSE|FALSE (ssRNA)
RNA: GGGAGUUCUACAGUCCGACGAUCAAAGACCCUGAGUGAAUCUUCGGACUAGGCACGUCUUUCCCACUCCAGCGUUGCCAAUUAAAACAAUUUUGAACAGGAAAUCAUAAUCUUCCAUACUCAUUUACACAGCUGGUUUGGGAUCAACAGAGGAUUGAGCAUCA

The list shows a part of the results.

In this experiment the target is T1, UNK ZnF1-3. Put plainly: nsRBNS (natural sequence RNA bind-n-seq); RBNS binding buffer (assumed for nsRBNS): 25 mM Tris pH 7.5, 150 mM KCl, 3 mM MgCl2, 0.01% Triton X-100, 500 ug/ml BSA, 20 U/ml SUPERase-In, 4 C; UNK is unkempt and MSI1 is Musashi-1; names of the RNAs are library labels; protein concentration not given here; high values mean tight binding.
B1 came in with a binding signal of 1.07 enrichment R.
As for B2, the binding signal turned out to be 1.51 enrichment R.
B3 came in with a binding signal of 1.11 enrichment R.
Molecule B4 came in with a binding signal of 0.943 enrichment R.
Next, B5: 0.582 enrichment R; B6: 1.08 enrichment R; B7: 1 enrichment R.
With B8 the figure was 0.587 enrichment R; with B9, 0.666 enrichment R.
With B10 the figure was 1.32 enrichment R; with B11, 0.681 enrichment R; with B12, 0.567 enrichment R.
Molecule B13 came in with a binding signal of 0.855 enrichment R.
In turn, B14 registered a binding signal of 1.1 enrichment R.
